From PubChem BioAssay AID488969 (Vanderbilt High Throughput Screening Facility, 2010)
The full ranking holds about 110,000 compounds; the median of “z-score” is about -0.1, and the highest 2% start at about 2. This is one part of the list.

biological target: Metabotropic glutamate receptor 8 (Rattus norvegicus) (UniProt P70579); assay: rat mGluR8 modulators via GIRK flux, primary screen, cell-based, thallium flux, HTS (AID 488969); conditions: HEK293 rat mGluR8, GIRK (G protein-gated inwardly rectifying potassium channel) thallium flux, FluoZin2; at 10 µM; stronger effect = higher value; submaximal glutamate (EC20) added with thallium
UniProt P70579, sequence (P70579 whole entry, looked up): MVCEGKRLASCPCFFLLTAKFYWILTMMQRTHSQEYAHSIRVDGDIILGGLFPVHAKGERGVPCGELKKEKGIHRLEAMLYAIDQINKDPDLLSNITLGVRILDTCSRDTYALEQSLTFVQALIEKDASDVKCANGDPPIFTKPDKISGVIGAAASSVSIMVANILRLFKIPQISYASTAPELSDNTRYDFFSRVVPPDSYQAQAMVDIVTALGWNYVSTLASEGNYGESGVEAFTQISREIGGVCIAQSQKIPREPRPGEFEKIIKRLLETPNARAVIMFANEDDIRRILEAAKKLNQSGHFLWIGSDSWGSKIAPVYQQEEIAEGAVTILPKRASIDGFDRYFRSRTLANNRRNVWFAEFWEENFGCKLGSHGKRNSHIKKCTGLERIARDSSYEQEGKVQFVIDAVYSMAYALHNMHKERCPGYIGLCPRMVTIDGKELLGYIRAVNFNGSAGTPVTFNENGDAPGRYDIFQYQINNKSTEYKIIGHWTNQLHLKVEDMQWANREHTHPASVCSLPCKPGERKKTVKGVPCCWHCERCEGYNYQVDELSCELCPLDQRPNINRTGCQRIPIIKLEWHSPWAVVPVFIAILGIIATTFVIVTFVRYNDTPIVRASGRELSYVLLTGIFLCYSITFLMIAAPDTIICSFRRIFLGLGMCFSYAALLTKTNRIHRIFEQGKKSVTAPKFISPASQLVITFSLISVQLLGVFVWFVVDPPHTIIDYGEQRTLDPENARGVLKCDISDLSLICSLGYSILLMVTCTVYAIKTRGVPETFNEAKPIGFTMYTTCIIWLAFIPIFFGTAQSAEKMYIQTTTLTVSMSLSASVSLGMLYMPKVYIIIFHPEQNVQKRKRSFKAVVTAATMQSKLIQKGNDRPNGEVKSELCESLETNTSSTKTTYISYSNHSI

| Structure (SMILES) | z-score |
| --- | --- |
| COc1cccc(OC)c1C(=O)N1CCN(Cc2ccncc2)CC1 | -0.302 |
| Cc1nc2sc(C(c3ccco3)N3CCc4ccccc4C3)c(O)n2n1 (stereo not drawn) | 0.00916 |
| O=C(CSc1ncccc1-c1nc2ccccc2[nH]1)N1CCc2ccccc21 | -0.179 |
| CCN(CCO)C(=O)C12CCC(C)(C(=O)C1)C2(C)C (stereo not drawn) | -0.246 |
| Cc1cc(Cl)ccc1OCC(=O)Nc1nc(-c2cccs2)cs1 | 0.213 |
| c1cncc(-c2nnc(SCCSc3nnc(-c4cccnc4)o3)o2)c1 | 1.14 |
| CC(=O)NNC(=S)NC(=O)c1cccc([N+](=O)[O-])c1 | -0.0668 |
| Cc1cccc(NC(=O)c2sc3nc(-c4ccc(F)cc4)cn3c2C)n1 | -0.613 |
| CCC(CC)NC(=O)c1cc([N+](=O)[O-])ccc1N1CCOCC1 | -0.182 |
| CSc1nc2[nH]ncc2c(=O)[nH]1 | -0.284 |
| Cc1ccccc1NC(=O)c1csc2c1CCCC2 | -0.435 |
| N#CC1=C2SCC(O)(c3ccccc3)N2C(=O)CC1c1ccccc1 (stereo not drawn) | -1.02 |
| CSc1ccccc1-n1nnnc1SCC(=O)NCc1cccs1 | -0.276 |
| C=CCOc1ccc2ccccc2c1CNCCCN1CCOCC1 | -1.52 |
| Cc1cc(C)c(NC(=O)CSc2nc(COc3ccccc3)nc3ccccc23)c(C)c1 | -0.261 |
| CCn1c(=O)n(CC)c2cc(S(=O)(=O)N3CCC(c4ccccc4)CC3)ccc21 | 0.0475 |
| O=C(NCc1cccc(Cl)c1)c1cnn2c1NC(c1ccco1)CC2C(F)(F)F (stereo not drawn) | -0.766 |

| Structure (SMILES) | z-score |
| --- | --- |
| C=C(C)Cn1c(SCC#N)nc2ccccc2c1=O | -0.836 |
| O=C(NCc1ccco1)C12CN(Cc3ccccc3)CC1C(c1ccc([N+](=O)[O-])cc1)=NO2 (stereo not drawn) | -0.391 |
| CCCc1nnc(NC(=O)Cn2c(=O)oc3ccccc32)s1 | 0.508 |
| COCCCNC(=O)c1cccs1 | -0.314 |
| O=C(Nc1ccccc1)c1ccccc1NC(=O)C(F)(F)F | -0.777 |
| N#Cc1ccc(N=c2ssnc2Cl)cc1 | -0.00472 |
| C=CCNC(=O)NC(=O)COn1nnc2ccc(S(=O)(=O)N(C)C)cc21 | -0.0477 |
| CCOc1ccc(-c2nc(N)ncc2Oc2ccccc2Br)c(O)c1 | -0.0325 |
| O=C1C=C(c2ccc(Cl)cc2)OC2(CCCC2)O1 | -0.366 |
| COC(=O)CSc1nc(-c2ccccc2)nc2ccc(F)cc12 | -0.132 |
| CCCCNC(=S)Nc1cccc2cnccc12 | -0.208 |
| O=C(NCc1cccs1)C(NS(=O)(=O)c1cccc2nsnc12)c1ccccc1 (stereo not drawn) | 1.17 |
| Cc1cc(Cl)ccc1Oc1nccc(N(C)C)c1C#N | -0.182 |
| COCCNC(=O)c1ccc(C)c(S(=O)(=O)Nc2ccc(C)cc2)c1 | 0.283 |
| COc1ccc(C2(CNC(=O)c3ccco3)CCOCC2)cc1 | -0.0562 |
| CCOC(=O)CSC1=C(C#N)C(c2sccc2C)CC(=O)N1 (stereo not drawn) | -0.184 |
